The whole screen tested about 310,000 compounds, of which about 2,200 (0.71%) showed an effect of 50% or more. The effect is printed as a negative number. The list shows a part of the results.
target: human ether-à-go-go-related gene (hERG) potassium channel (human, UniProt Q12809); test: primary screen, population patch clamp on CHO cells stably expressing hERG
Sequence (Q12809 whole entry, looked up): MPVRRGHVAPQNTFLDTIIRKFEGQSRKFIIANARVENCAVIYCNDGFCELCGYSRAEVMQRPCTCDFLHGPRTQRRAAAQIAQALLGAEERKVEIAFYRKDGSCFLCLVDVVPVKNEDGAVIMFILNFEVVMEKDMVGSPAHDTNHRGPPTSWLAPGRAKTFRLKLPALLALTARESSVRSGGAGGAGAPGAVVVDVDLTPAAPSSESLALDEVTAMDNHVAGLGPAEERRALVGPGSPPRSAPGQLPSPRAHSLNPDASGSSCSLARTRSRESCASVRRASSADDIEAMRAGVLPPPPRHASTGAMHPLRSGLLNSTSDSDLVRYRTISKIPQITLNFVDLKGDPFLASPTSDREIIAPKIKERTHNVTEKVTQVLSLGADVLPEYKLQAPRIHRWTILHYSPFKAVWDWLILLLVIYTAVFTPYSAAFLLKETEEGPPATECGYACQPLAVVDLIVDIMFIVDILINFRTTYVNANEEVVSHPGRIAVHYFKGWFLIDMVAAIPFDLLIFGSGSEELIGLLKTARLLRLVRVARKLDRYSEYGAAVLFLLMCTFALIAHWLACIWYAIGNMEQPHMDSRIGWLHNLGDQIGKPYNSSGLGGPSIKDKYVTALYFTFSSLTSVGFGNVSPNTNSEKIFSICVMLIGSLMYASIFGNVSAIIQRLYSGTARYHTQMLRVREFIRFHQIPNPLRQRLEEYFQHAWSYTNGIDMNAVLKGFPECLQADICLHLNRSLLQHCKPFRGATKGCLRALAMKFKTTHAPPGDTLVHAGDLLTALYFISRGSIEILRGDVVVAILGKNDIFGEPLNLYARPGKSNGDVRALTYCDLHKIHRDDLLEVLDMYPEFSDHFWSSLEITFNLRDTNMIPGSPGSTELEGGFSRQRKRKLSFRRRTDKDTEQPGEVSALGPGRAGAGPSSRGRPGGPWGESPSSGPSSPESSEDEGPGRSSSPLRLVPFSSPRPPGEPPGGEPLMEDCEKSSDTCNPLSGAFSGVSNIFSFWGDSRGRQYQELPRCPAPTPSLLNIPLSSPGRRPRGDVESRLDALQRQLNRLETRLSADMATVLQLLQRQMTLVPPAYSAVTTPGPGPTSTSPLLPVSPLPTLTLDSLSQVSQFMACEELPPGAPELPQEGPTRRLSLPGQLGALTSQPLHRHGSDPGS

Compound | hERG current change (%, negative = inhibition) at 1uM [%]
O=C(N/C(=C/c1ccccc1)C(=O)N1CCCCC1)c1ccccc1 | 6.95
COc1ccc(N2CCN(c3cc(C)c4cccc(C)c4n3)CC2)cc1 | 11.4
CCOCCCNC(=O)c1ccc(CS(=O)(=O)Cc2cccc(C)c2)o1 | 12.5
CCc1ccc(CNC(=O)C2CCCN(c3nc4ccccc4o3)C2)cc1 (stereo not shown) | 5.7
O=C1C(=O)N(Cc2cccnc2)C(c2cccc([N+](=O)[O-])c2)/C1=C(/O)c1ccc2c(c1)OCO2 (stereo not shown) | 12
CN(C)c1ccc(C=NCCC2(O)CCOC(C)(C)C2)cc1 (stereo not shown) | 14.5
C/C(=N\NC(=O)c1cc(C)nc2ccccc12)c1ccc([N+](=O)[O-])cc1 | 14.7
COc1cc(C2NC(=O)NC(C)=C2C(C)=O)cc(OC)c1OC (stereo not shown) | 5.4
COC(=O)C(CC(C)C)NC(=O)c1ccc([N+](=O)[O-])cc1 (stereo not shown) | 0.193
COc1cc(C(=O)N2CCN(S(=O)(=O)c3ccc(C)cc3)CC2)ccc1OCc1c(C)noc1C | 7.68
Cc1cc(C(=O)NC2CCCCC2)c(C)n1-c1ccc(F)cc1 | -4.23
CCOC(=O)c1cccc(Nc2nc(-c3cccnc3)nc3ccccc23)c1.Cl | -3.9
CCCCn1nc(NC(=O)CC(C)C)c2cc3cc(OC)ccc3nc21 | 13.4
Cc1nn(C)cc1C(=O)/C=C/c1ccc([N+](=O)[O-])cc1 | 6.23
Cc1c(/C=N/Nc2ccc([N+](=O)[O-])cn2)c2ccccc2n1Cc1ccccc1 | 16.3
CCCNc1nc(Cl)nc(NC(C)(C)C)n1 | 16.2
COC(=O)[C@@H]1C[C@H]1[C@@H](NC(=O)c1ccccc1)c1ccccc1 | 4.69
CC1CCc2c(sc(NC(=O)c3ccco3)c2C(=O)O)C1 (stereo not shown) | 14.4
COc1ccc(-c2noc(CCCC(=O)NCC3CCCO3)n2)cc1 (stereo not shown) | 12.3
O=C(c1c(Cl)cccc1Cl)N1CCN(c2ncccn2)CC1 | 9.39
N=C1C(c2nc3ccccc3c(=O)[nH]2)=C(O)CN1CCc1ccccc1 | 12.5
CN1CCN(C(=O)C2=C[C@@H](c3coc4ccccc4c3=O)C[C@@H](OCc3ccc(CO)cc3)O2)CC1 | 6.95

Compound | hERG current change (%, negative = inhibition) at 1uM [%]
CN(C)S(=O)(=O)c1ccc(C(=O)/C=C/c2cccnc2)cc1 | 11
CC(C)(C)OC(=O)[C@H](Cc1ccccc1)NC(=O)c1nc[nH]c1C(=O)N1CCN(C(=O)OC(C)(C)C)CC1 | -12.8
COc1ccc(CC(=O)Nc2ccccc2C(=O)N2CCOCC2)cc1OC | 11.9
N#CCSc1nnc(N)s1 | 5.3
Cc1cccc(C(=O)Nc2ccccc2C(=O)NCc2ccco2)c1 | 8.71
CCOC(=O)c1cnc(SC)nc1Oc1cccc(NS(=O)(=O)c2ccc(C)cc2)c1 | 1.65
CN(C)c1ccc(S(=O)(=O)N2CCCCC2)cc1NC(=O)COc1ccccc1F | -2.54
Cn1cc(/C=N/Nc2ccccc2)c2ccccc21 | 18.3
O=C(O)c1cccc(CSc2ncn[nH]2)c1 | 3.9
O=C(Cc1cccs1)Nc1nnc(-c2ccc(F)cc2)s1 | 2.8
Cc1nc(=O)c(-c2ccccc2)c(C)n1-c1cccc(C(=O)O)c1 | 13
O=C(O)c1c(Cl)c(Cl)c(Cl)c(Cl)c1C(=O)N1CCOCC1 | 13.8
O=C1CSC(=Nc2ccc(Cl)cc2)N1Cc1cccnc1 | 6.05
O=C(N/N=C/c1c[nH]c2ccccc12)C1COc2ccccc2O1 (stereo not shown) | 6.51
COC(=O)C(CC(C)C)NC(=O)c1cccs1 (stereo not shown) | 13.5
O=C(c1ccc(S(=O)(=O)Cc2ccccc2Cl)c([N+](=O)[O-])c1)N1CCN(c2ccccn2)CC1 | 5.86
CC(=O)C(Cc1cccc(F)c1)(Cc1cccc(F)c1)C(C)=O | 7.8
O=C(CN1C(=O)NC(Cc2c[nH]c3ccccc23)C1=O)NCC(F)(F)F (stereo not shown) | 15.9
O=c1[nH]c(=S)ccn1C1OC(CO)C(O)C1O (stereo not shown) | 15.4
O=C(CC(=O)NCc1ccc(Cl)cc1)NCc1ccccc1 | 5.17
O/N=C1\CCCCc2ccccc21 | 14.4
CNS(=O)(=O)c1ccc(NC(=O)c2ccc(Cl)cc2Cl)cc1 | 12.5

Compound | hERG current change (%, negative = inhibition) at 1uM [%]
Cc1cnc(C(=O)OCC(=O)Nc2sc3c(c2C#N)CCC3)cn1 | 0.245
Cc1cc(C)n(Cc2ccc(Cl)nc2)n1 | 11.9
N#CCNC1CC(=O)N(c2ccc(F)cc2)C1=O (stereo not shown) | 7.69
CCO[C@H]1OC(C(=O)NCc2ccccc2)=C[C@@H](c2ccc3c(c2)OCO3)[C@@H]1CCCO | -1.53
COc1ccc(NC(=O)c2cc(S(=O)(=O)N3CCCC3)ccc2OC)cc1 | 9.6
O=C(CSc1ccc(-c2ccc(F)cc2)nn1)NCc1ccco1 | 13.2
CCc1ccc(NC(=O)CCS(=O)(=O)c2ccc3c(c2)CCN3C(C)=O)cc1 | 17.6
CCN1C(=O)c2cccc3c(NC(=O)c4ccccc4)ccc1c23 | 10
NC(=O)c1ccc(NC(=O)c2ccc3c(c2)CCN3S(=O)(=O)c2ccccc2)cc1 | 12.1
CC(=O)c1nc(N2C(=O)CC(Cc3ccc(C)cc3)C2=O)sc1C (stereo not shown) | 8.47
Cc1nc(SCC(=O)CC(=O)OC(C)C)c(C#N)c(C)c1C | -2.17
Cc1ccc(C(=O)OCC(=O)NC(=O)NCc2ccccc2)cc1C | 10.1
Cc1ccc(C(C(=O)NC2CCCC2)N2CCCC(C)C2)cc1 (stereo not shown) | 10.4
CCCCNC(=O)c1cnc2n(c1=O)CCS2 | 3.48
Cc1c(C(=O)NC(=S)Nc2ccc(NC(=O)c3cccs3)cc2)cccc1[N+](=O)[O-] | 5.09
Cc1noc(C(=O)Nc2cccc(Cl)c2)c1Cl | 20
Cc1cc([N+](=O)[O-])cnc1Sc1nccn1C | 8.62
CCC(C(=O)OC)(C(=O)OC)c1ccc([N+](=O)[O-])cc1 | 9.67
CC12CCC(C(=O)N3CCN(Cc4ccccc4)CC3)(OC1=O)C2(C)C (stereo not shown) | 14.9
Nc1[nH]n(-c2ccccc2)c(=O)c1N=Nc1ccccc1[N+](=O)[O-] | 11.7
CCN(C(=O)Cn1nc(C)c([N+](=O)[O-])c1C)c1c(N)n(Cc2ccccc2)c(=O)[nH]c1=O | 13.6
CC(C)c1ccc(N2C(=O)C3C4C=CC(CC4)C3C2=O)cc1 (stereo not shown) | 19.1

Compound | hERG current change (%, negative = inhibition) at 1uM [%]
Cn1c(=O)[nH]c(=O)c2c1nc(N1CCCCC1)n2C/C=N/Nc1ccc(C(=O)O)cc1 | 13.5
Cc1nc2ccc(NS(=O)(=O)c3ccc(F)c(C)c3)cc2[nH]1 | 6.71
CC(=C/c1ccccc1)/C=N/NC(=O)c1cc(C)oc1C | 11.1
Cc1ccc(Cn2c(C(C)Nc3nc(-c4ccc(F)cc4)cs3)nc3cc(C(=O)NCCCO)ccc32)cc1 (stereo not shown) | 9.82
N/C(Cc1ccc(Cl)cc1Cl)=N\OC(=O)c1ccccc1F | -5.79
Cc1ccc(NS(=O)(=O)c2cccc3cccnc23)c(Br)c1 | 17.5
CCCCC(=O)Nc1cccc(NC(=O)c2ccccc2Br)c1 | 4.7
Cc1ccccc1C(=O)N1N=C(c2cccc(NS(C)(=O)=O)c2)CC1c1cccs1 (stereo not shown) | 10.4
O=C(Nn1cnc2ccccc2c1=O)c1ccc(Br)cc1 | 10.5
O=C(OCC(O)CN1CCCCC1)C12CC3CC(CC(C3)C1)C2 (stereo not shown) | -0.966
COc1ccccc1NC(C)=[N+](C)CCNS(=O)(=O)c1ccc(Cl)cc1.[I-] | -28.4
CC(=O)Nc1ccc(NC(=S)Nc2ccc(Br)cc2)cc1 | 6.16
NC(=S)/N=C/c1c(O)[nH]c(=O)[nH]c1=O | 8.13
NS(=O)(=O)c1ccc(NC2=CC(c3ccc(F)cc3)N(c3ccc(S(N)(=O)=O)cc3)C2=O)cc1 (stereo not shown) | 11.9
O=C(Nc1ccc2c(c1)OCCO2)c1cccc(Cl)c1Cl | 8.88
CNC(=O)COC(=O)c1[nH]c(C)c(C(C)=O)c1C | 13.1
COC(=O)C1=C(CSc2nc3ccccc3o2)NC(=O)NC1c1cc(C)ccc1C (stereo not shown) | 4.74
COc1cccc(-n2nnnc2SCC(=O)NCc2ccc3c(c2)OCO3)c1 | 6.2
CC(C)c1nc(NCCO)c2nnn(Cc3ccccc3)c2n1 | 12.6
COc1ccc(NC(=O)CN(C)C(=O)c2cc(S(=O)(=O)N(C)C)ccc2N2CCCC2)cc1 | -4.85
COc1cc(/C=N/NC(=O)CC23CC4CC(CC(C4)C2)C3)cc(Br)c1OCC(=O)N(C)C | 11.8
COc1ccc(C(=O)C(=O)c2ccc(OCCO)cc2)cc1 | 10.8

— article PMC4336329 (PLoS ONE, 2015)
